Biological target: the molecule itself
Assay: SEC-MALS; Superdex S200 5/150 GL increase; 25 µl at 10 mg ml^-1 in 0.05 M Tris-HCl pH 7.5, 0.2 M NaCl

B1: Δ446–449 AdhE mutant (His6-AdhE with the linker shortened) (enzyme, E. coli, UniProt P0A9Q7 1-891, looked up)
chain: MAVTNVAELNALVERVKKAQREYASFTQEQVDKIFRAAALAAADARIPLAKMAVAESGMGIVEDKVIKNHFASEYIYNAYKDEKTCGVLSEDDTFGTITIAEPIGIICGIVPTTNPTSTAIFKSLISLKTRNAIIFSPHPRAKDATNKAADIVLQAAIAAGAPKDLIGWIDQPSVELSNALMHHPDINLILATGGPGMVKAAYSSGKPAIGVGAGNTPVVIDETADIKRAVASVLMSKTFDNGVICASEQSVVVVDSVYDAVRERFATHGGYLLQGKELKAVQDVILKNGALNAAIVGQPAYKIAELAGFSVPENTKILIGEVTVVDESEPFAHEKLSPTLAMYRAKDFEDAVEKAEKLVAMGGIGHTSCLYTDQDNQPARVSYFGQKMKTARILINTPASQGGIGDLYNFKLAPSLTLGCGSWGGNSISENVGPKHLINKKTVANMLWHKLPKSIYFRRGSLPIALDEVITDGHKRALIVTDRFLFNNGYADQITSVLKAAGVETEVFFEVEADPTLSIVRKGAELANSFKPDVIIALGGGSPMDAAKIMWVMYEHPETHFEELALRFMDIRKRIYKFPKMGVKAKMIAVTTTSGTGSEVTPFAVVTDDATGQKYPLADYALTPDMAIVDANLVMDMPKSLCAFGGLDAVTHAMEAYVSVLASEFSDGQALQALKLLKEYLPASYHEGSKNPVARERVHSAATIAGIAFANAFLGVCHSMAHKLGSQFHIPHGLANALLICNVIRYNANDNPTKQTAFSQYDRPQARRRYAEIADHLGLSAPGDRTAAKIEKLLAWLETLKAELGIPKSIREAGVQEADFLANVDKLSEDAFDDQCTGANPRYPLISELKQILLDTYYGRDYVEGETAAKKEAAPAKAEKKAKKSA
notes: Acetaldehyde-alcohol dehydrogenase AdhE, E. coli K12, as m1 with residues 446-449 of the linker between the AlDH and ADH domains deleted; Dimer by SEC-MALS (200 kDa); Probably expressed and purified as the wild type (surmised); also called ∆446–449 mutant AdhE; AdhE mutant protein; source: His6-AdhE-pET15 plasmid with the deletion; purified
stoichiometry N: 2
